# Out of some 150,000 compounds screened, about 540 (0.36%) showed an effect of 50% or more. The list shows a part of the results.
# Test system: Plasmodium falciparum
# Test: Primary screen in NF54 nanoGlo assay, in single point, at 2uM, 72h; a lower Z score goes with more inhibition
# Format: functional, Erythrocyte
# Details: timepoint 72 hour
Structure (SMILES),% Inhibition [%],Z score
CC(C)(C)c1cc(NC(=O)CN2CCNC(=O)CC2)on1,-33,3.87
Cc1ccc2c(c1)CCCN2C(=O)CN1CC[C@](C)(O)[C@@H](O)C1,1,-0.27
O=C([C@H]1CN(S(=O)(=O)c2cccs2)CC12CCOCC2)N1CCCCC1,-5,0.99
COc1ccccc1CNC(=O)CN1CCn2nc(C)cc2C1,-12,1.91
C[C@]1(O)CCN(C(=O)c2ccc(O)cc2)C[C@H]1Cc1ccccc1,-3,0.37
CC[C@H](O)c1cc2n(n1)CCN(c1cc(OC)nc(N)n1)C2,-7,1
CCCc1nnnn1Cc1nc(C)c(C)s1,6,-1.1
CN1CCN([C@H]2CN(C(=O)c3ccc(Cl)cc3O)C[C@@H]2O)CC1,-16,3.13
CC(C)CN(Cc1c(-c2ccccc2)nn(C)c1N(C)C)C(=O)NC(C)C,-5,1.04
COc1ccc(-c2nn(CN(C)Cc3ccc(Cl)cc3)c(=S)o2)cc1OC,-8,1.09
C[C@H](OCC1CC1)C(=O)N(Cc1ccc[nH]1)c1ccc(N(C)C)cc1,-10,1.2
Cc1cccc(CN(CCc2c[nH]c3ccccc23)Cc2nc(C(=O)N(C)Cc3ccccc3)co2)c1,-13,2.16
CC(C)Oc1cc(N[C@H]2C[C@H](c3nnc(CN(C)C)n3C)C2)nc(N)n1,-5,0.47
Cc1csc(NC(=O)C2CCN(c3cc(C4CC4)ncn3)CC2)n1,-10,1.91
Cc1nc(CN2CC[S@@+]([O-])CC2(C)C)c(C)s1,-2,0.29
C[C@@H](CNC(=O)N1CC(S(C)(=O)=O)C1)COCc1ccccc1,-1,0.11
Cc1nnc(COc2ccc(NC(=O)Cc3c(C)noc3C)cc2)o1,-8,1.48
CCC[C@H]1CCCN(C(=O)c2c(C)nsc2NC)CC1,7,-0.62
COC(=O)c1cnc(N2CCOCC2)nc1-c1cnc(N2CCCCC2)nc1C,-3,0.4
Cc1nc(C)c(C(=O)NC2(Cc3cccc(F)c3)CCC2)o1,-18,2.29
CCN1CCN(C(=O)c2cc3cc(NC(=O)c4ccccc4Cl)ccc3n2Cc2cccc(F)c2)CC1,2,-0.26

Structure (SMILES),% Inhibition [%],Z score
CCOc1nc2ccccc2nc1N1CCC[C@H](C(=O)Nc2ccc(F)cc2C)C1,-9,0.89
O=C(c1ccc(F)cc1)N1CCOc2ccc(CN3CCCC3)cc2C1,3,-0.52
COc1ccc(C)cc1NC(=O)C[C@H]1COc2ccccc2O1,9,-1.44
C=C(C)CN[C@@](C)(C(N)=O)c1cccc(Cl)c1,-13,1.75
O=C(c1cccc(OC(F)F)c1)N1CCOC[C@](O)(CN2CCCC2)C1,-7,1.46
Cc1cc(N2CC[C@H](N3CCN(C)CC3)[C@H](CCC(=O)O)C2)nc2ccccc12,1,-0.13
CC[C@H](NC(=O)c1ccn(C(F)F)n1)c1cccc(C)n1,-1,0.15
CCc1cc(C(=O)NCc2c(C)cc(C)[nH]c2=O)[nH]n1,-10,1.85
CCc1ccc(OCC(=O)Nc2cc(C(C)C)ccc2O)c(-n2cnnc2)c1,1,-0.1
Cc1oc(-c2cccc(F)c2F)nc1CN(C)C[C@H]1CCCNC1,1,-0.26
CNC(N)=NCCc1ccc(OC(F)F)cc1,-10,1.81
Cc1ccn(-c2ccc(C(=O)NCCc3ccc(Cl)cc3)cn2)n1,-9,1.08
COc1ccc(C(=O)c2sc(Nc3ccc4c(c3)OCCO4)nc2N)cc1,-15,2.27
Cc1cc(NCc2ccc(C(=O)O)cc2)nc(C2CC2)n1,-13,1.55
CC(C)OCCC(=O)N[C@@H](C)c1csc(C(C)C)n1,-7,0.73
COCC(=O)Nc1cc(C(=O)N(C)CCc2cn[nH]c2)c2c(c1)ncn2Cc1ccc(F)cc1,-7,1
CCN(Cc1cncnc1)Cc1ccc2[nH]ccc2c1,-10,1.26
CCC(CC)CNc1ncc(C(C)(C)C(=O)O)c(N2CCOCC2)n1,-10,1.99
Nc1nc(N2CCOCC2)[nH]c(=O)c1Br,27,-3.04
C[C@@H](c1cccnc1)N(C)Cc1cc(C#N)cs1,1,-0.13
CC(C)C(=O)Nc1ccc2nc(N3CCN(CC(=O)N(C)C)CC3)cc(C(=O)O)c2c1,-25,2.95

Structure (SMILES),% Inhibition [%],Z score
COc1cc(C)c(NC(=O)NCc2ccc3occc3c2)c(C)c1C,-13,2.83
FC(F)(F)CN1CCN(Cc2cc(CN3CCCC3)cs2)CC1,-10,1.88
CCN1C(=O)COc2ccc(NC(=O)N3CCCCC[C@H]3c3ccco3)cc21,-7,1.16
CCCc1nc(Cn2c(C)ncc(-c3nc(C)cs3)c2=O)no1,24,-3.01
O=C(NCc1ccc(F)cc1F)c1nn(-c2ccccc2)c2ccccc2c1=O,-4,0.55
Cc1nn(CC(=O)N2C[C@H]3COCC[C@@]3(O)[C@@H]3COCC[C@@H]32)cc1Cl,-5,0.48
CC(C)(C)OC(=O)N1CCN(Cc2nnnn2-c2ccccc2)C2(CCCCC2)C1,1,-0.19
Cc1cccc(-c2noc(N3CCOCC3)c2CN(Cc2ccc(F)cc2)C(=O)c2ccccc2F)c1,7,-0.9
COC(=O)c1ccc(NC(=O)N2CCC[C@H](CN3CCC(C)CC3)CC2)cc1,6,-0.93
COc1ccc(NC(=O)Cn2c(C)cc(C)c(-c3nc(-c4ccc5c(c4)OCO5)no3)c2=O)cc1OC,-10,1.4
COc1ccc(CCNC(=O)Cn2ccnc2)cc1OC,-9,1.66
c1ccn2c(-c3noc([C@H]4CCn5c(cnc5C5CCCCC5)C4)n3)cnc2c1,-16,2.94
C[C@H]1Cc2cc(NC(=O)c3ccc(C(=O)N4CCOCC4)cc3)ccc2O1,-16,2.27
O=C(CC1CCCC1)NC1CCN([C@H]2CCN(CC(F)(F)F)C2)CC1,2,-0.28
CCOc1ccc(C(N)=O)cc1Br,36,-5.17
O=C(O)CCn1c(=O)cc(C(F)(F)F)c2cn(C3CCCC3)nc21,-5,0.53
CO[C@@H](C)c1nc(-c2cccc3c2ccn3C)nn1CC(C)(C)O,-13,1.62
CCCN(CC1CC1)C(=O)Cc1ccc(S(N)(=O)=O)s1,-6,0.58
Cc1nc2c(c(Oc3ccc(NS(C)(=O)=O)nc3)n1)CCCC2,-10,0.84
O=C(Nc1ccon1)c1ccnc(OCC2CC2)c1,-16,3.1
Cc1ncoc1C(=O)N1CCCCC[C@H]1c1noc(C(C)C)n1,-5,0.63

Structure (SMILES),% Inhibition [%],Z score
Cc1ccn(CC(=O)N2CCCCCCC2)c(=O)c1,-1,0.15
CCC[C@H](C)N(C)C(=O)NCc1nnc2n1CCC2,-15,1.28
COc1ccc(/C=C\[C@@]23N(Cc4ccccc4)C(=O)CN2c2ccccc2C3(C)C)cc1,-7,0.88
CN(Cc1ccc(Cl)s1)C(=O)CN(C)C1CC[S+]([O-])CC1 (stereo not drawn),-15,2.03
COC(=O)CNc1cc(C(=O)OC)cc(F)c1C,-10,1.35
CC(C)[C@H]1CN(C)CCN1C(=O)CC1(c2ccccc2Cl)CC(=O)N(CCN(C)C)C1=O (stereo partly drawn),3,-0.51
COc1ccc(Cl)cc1-c1ncccc1C(=O)N1C[C@@H]2CC[C@H]1C2,-21,2.7
O=C(CCc1ccccc1)Nc1nc(CN2CCc3ccccc3C2)cs1,1,-0.08
CCN1C(=O)CN(C(=O)c2ccn(CC)n2)CC12CCOCC2,3,-0.39
CCn1nc(C)cc1C(=O)OC1([C@H]2CCOC2)CC1,-14,1.45
O=C(N[C@H]1CC(=O)N(c2ccccc2)C1)N1CCN(Cc2ccccc2)CC1,11,-1.35
Cn1ncc(N2CC[C@H](CNC(=O)c3c[nH]nc3-c3cccc(F)c3)C2)cc1=O,0,0.06
Cc1ccnc2nc(C(=O)N3CCCC4(CCCCC4)C3)nn12,-8,1.11
Cc1ccc(Cl)cc1NC(=O)c1ccc2c(c1)nnn2C1CCCC1,0,-0.05
COc1cccc(CN2CCN(S(C)(=O)=O)[C@@H](C)C2)n1,0,-0.06
COC1CN(c2cc(-n3nc(C)c(Br)c3C)ncn2)C1,-10,2.15
CN1CCC(n2nccc2NC(=O)c2cn3ccsc3n2)CC1,-9,1.77
COc1ccc2[nH]c(CNS(=O)(=O)CC3CCCC3)cc2c1,8,-0.73
CCC=C(C)C(=O)N1CCC(C(=O)NCC)CC1,-7,0.95
CC(C)n1c(=O)c2cn(S(=O)(=O)c3ccc(C(C)(C)C)cc3)nc2n(C(C)C)c1=O,-3,0.54
COc1ccccc1NC(=O)Cn1c(=O)n(C(C)C)c2ccc(S(=O)(=O)N3CCCC3)cc21,1,-0.18

# From ChEMBL document CHEMBL4888484, “Replenishing the malaria drug discovery pipeline: Screening and hit evaluation of the MMV Hit Generation Library 1 (HGL1) against asexual blood stage Plasmodium falciparum ,using a nano luciferase reporter read-out” (2022)
